Several values for one entry are separate records, joined by “and”; a condition that tells them apart may be missing. Equal entries are not always repeated. In all, about 48,000 compounds went through this assay and about 1,200 (2.5%) were called active. About 2% were inconclusive and are not listed.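 The calls were made as follows: active = activation of at least 60% and not above a set upper limit (about 1 call in 100 departs from these limits); inconclusive = activation of 40% to 60%, or above that upper limit; inactive = activation under 40%.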 The list shows a part of the results.
target: Probable G-protein coupled receptor 32 (Homo sapiens) (UniProt O75388); test: qHTS for Agonists of Human Resolvin D1 Receptor DRV1; conditions: CHO-K1 GPR32 beta-arrestin PathHunter luminescence, 90 min; at 76.9 µM; active compounds read high; zero percent set by DMSO-only wells; also: 0% is about no effect
UniProt O75388, sequence (O75388 whole entry, looked up): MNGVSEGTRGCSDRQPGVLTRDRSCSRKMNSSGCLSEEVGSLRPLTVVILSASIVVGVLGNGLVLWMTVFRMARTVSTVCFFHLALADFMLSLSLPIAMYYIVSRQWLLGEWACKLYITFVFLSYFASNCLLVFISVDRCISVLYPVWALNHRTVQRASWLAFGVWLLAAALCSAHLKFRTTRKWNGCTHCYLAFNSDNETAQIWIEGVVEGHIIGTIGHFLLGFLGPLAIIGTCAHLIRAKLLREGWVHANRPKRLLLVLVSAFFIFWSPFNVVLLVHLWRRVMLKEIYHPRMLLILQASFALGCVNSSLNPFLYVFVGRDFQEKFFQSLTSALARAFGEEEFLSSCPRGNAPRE
Outline: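 Engineered CHO-K1 line co-expressing GPR32-ProLink and EA-beta-arrestin. Compound treatment lasted 90 min at 37 °C. Luminescence was recorded after 1 h with substrate at ambient temperature, relative to DMSO basal wells.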

activation, inactive:
COc1cccc(CNC(=O)COCc2cc(-c3ccc4c(c3)OCO4)on2)c1 -11.9%
CC1CCC2(CC1)N=C(c1ccccc1)C(=O)N2CC(=O)Nc1ccc(F)c(Cl)c1 (centres undefined) -43.3%
Cc1nc2ncnn2c(C)c1CCC(=O)N1CCN(c2cccc(Cl)c2)CC1 22.3%
CCOC(=O)c1cccc(NS(=O)(=O)c2cc3[nH]c(=O)c(=O)[nH]c3cc2C)c1 20%
Cc1cccc(-n2c(C)nc3cc(C(=O)NC4CCCCCC4)ccc32)c1 -4.98%
CCc1ccc(NC(=O)C2=CC(c3ccc4c(c3)OCO4)=NS(=O)(=O)N2C)cc1 -31%
COc1ccc(NC(=O)Nc2c[nH]c(=O)[nH]c2=O)c(OC)c1 -1.03%
CCOc1ccc(-c2nc(SCC(=O)NCCCOC)c(-c3ccccc3)[nH]2)cc1 -32.7%
CCn1c(CN2CCOCC2)nc2cc(NC(=O)c3ccc([N+](=O)[O-])cc3)ccc21 4.09%
COc1ccccc1CNC(=O)CSc1ncc2c(n1)-c1cc(Cl)ccc1N(Cc1ccccc1)S2(=O)=O 8.23%
Cc1c(C(=O)N(Cc2ccc(Cl)cc2)CC2CCCO2)oc2ccc(F)cc12 (centres undefined) -26.9%
CSc1ccc(CC2C(=O)Nc3ccccc32)cc1 (centres undefined) -19.8%
COc1ccccc1Oc1c(NS(=O)(=O)c2ccc(C(C)(C)C)cc2)nc(-c2ncccn2)nc1OCCO -9.46%
O=C(Cc1ccccc1F)N1CCC(c2nc3c(nnn3Cc3ccc(F)cc3)c(=O)[nH]2)CC1 -0.455%
O=C(CS(=O)(=O)c1cccc2nsnc12)Nc1cc(F)ccc1F 11.4%
CCCCSCCCNC(=O)c1cn(C)c2ccc(S(=O)(=O)N3CCCC3)cc2c1=O 7.67%
Cc1cc(C)cc(OCC(=O)N(Cc2ccc(Cl)cc2)CC2CCCO2)c1 (centres undefined) -21.9%
CCOC(=O)c1c(S(=O)(=O)N2CCC(C(=O)NCc3ccccc3OC)CC2)c(C)n(C)c1C -8.65%
Cc1ccc(CNC(=O)CCCCn2c(=O)c3ccccc3n(Cc3ccc(C)cc3)c2=O)cc1 -5.07%
O=C(NC1CCCC1)c1ccc2c(=O)n(Cc3ccccc3)c(SCc3ccccc3)nc2c1 -9.01%
Cc1ccc(-n2nc(C(=O)Nc3ccc(C)c(F)c3)c(=O)n(C)c2=O)cc1 -10.6%
COc1ccc(-c2nc3ccc(C)cn3c2Nc2ccc3c(c2)OCO3)cc1 -10.3%
COc1cc(C(=O)N2CCN(c3ccc(Nc4ccccc4)nn3)CC2)cc(OC)c1OC -17%
Cc1ccc(-n2nnnc2CNC(=O)c2ccccc2)cc1C -12.7%
COc1ccc(N2CCN(CCCNC(=O)c3cc(Nc4ccccc4OC)nc4ccccc34)CC2)cc1 28.1%
Cc1ccc(Nc2nc(Nc3ccc(C)c(C)c3)nc(N3CCOCC3)n2)cc1C -23.5%
CCc1cccc(C)c1NC(=O)C1CCN(S(=O)(=O)Cc2ccccc2)CC1 9.12%
CC1CCCCN1S(=O)(=O)c1cc2c3c(c1)CC(=O)N3CCC2 (centres undefined) -30.6%
COc1ccc(N2CC(NC(=O)COc3ccc4ccccc4c3)CC2=O)cc1 (centres undefined) 1.38%
O=C(Cn1c(-c2cccs2)cc2ccccc21)NCc1ccccc1Br 2.53%
O=C(Cn1c(=O)n(Cc2ccc(C(=O)NCc3ccccc3Cl)cc2)c(=O)c2ccccc21)Nc1ccc(F)c(Cl)c1 -5.59%
COc1cc(C(=S)N2CCOCC2)cc(OC)c1OC -0.884%
CC(C)Cc1ccc(CC(=O)O)cc1 -4.82%
Cc1cccc(CNC(=O)CN2C(=O)CCCc3ccccc32)c1 -9.03%
Cc1ccc(-c2nc(CS(=O)(=O)CC(=O)NCc3ccccc3Cl)c(C)o2)cc1 0.396%
COc1cccc(C(=O)Nc2ccccc2-c2nc3ccccc3s2)c1 -9.02%
CN(C)S(=O)(=O)c1ccc2c(c1)N(CC(=O)N1CCN(c3ccccc3F)CC1)CCS2 -7.06%
CCc1cccc(C)c1NC(=O)CN1C(=O)C2(SCC(=O)N2c2cc(C)cc(C)c2)c2ccccc21 (centres undefined) -7.5%
CC1=C(C(=O)Nc2cccc(C(F)(F)F)c2)C2(CCCCC2)OC1=O -33%
Cc1oc(-c2cccc(Cl)c2)nc1CN1CCCC(C(=O)NCc2ccc(Cl)cc2)C1 (centres undefined) 11%
NC(N)=NCCC[C@H](N)C(=O)O 0.264% and 10.9%
Cc1ccccc1CNC(=O)c1sc2ncnc(N(C)C3CCCCC3)c2c1C -6.58%
O=S(=O)(c1ccc2[nH]c3c(c2c1)CCCCC3)N1CCN(c2cccc(Cl)c2)CC1 3.38%
Cc1cccc(NC(=O)c2sc(-n3nc(C)c(CCC(C)C)c3C)nc2C)c1C -8.8%
OCc1cccnc1 11.5%
CCc1ccc(NS(=O)(=O)c2ccc(C(=O)N(C)C)s2)cc1 22.9%
O=C(C1CC1)N1CCc2cc(Br)cc(S(=O)(=O)N3CCN(c4ccccc4)CC3)c21 -6.37%
Cn1c(=O)c2sccc2n2c(CCC(=O)N3CCN(c4cccc(Cl)c4)CC3)nnc12 12.3%
CCCCOC(=O)c1ccc(Nc2nc3ccccc3c3nnc(C)n23)cc1 -0.316%
CCCCC(=O)Nc1nnc(S(=O)(=O)N(CC)c2cc(C)cc(C)c2)s1 -9.29%
Cc1c(CNCCc2ccc(S(N)(=O)=O)cc2)c(C(=O)O)c(C)n1Cc1ccc(Cl)cc1 1.27%
CCOc1ccc(/C=C(\C#N)C(=O)Nc2sc3c(c2C(=O)OC)C(C(=O)OC)CC3)cc1OC (centres undefined) -5.34%
CN(C(=O)CSc1nc2ccccc2n1CC(=O)N(C)c1ccc(F)cc1)c1ccccc1 12.8%
CCc1ccccc1NC(=O)Cn1nnc(C(=O)NCc2cccs2)c1N 12.6%
